Test results from PMC7126937 (Bioorganic & Medicinal Chemistry, 2014).

System: MDCK cells
Conditions: dog

Compound | CTD50 (cytotoxic concentration; the concentration resulting in death of 50% of cells)
CC(N)C12CC3CC(CC(C3)C1)C2.Cl (stereo not drawn) [Rimantadine, α-methyl-1-adamantylamine hydrochloride, reference compound] | 335.2 ± 26.8 µM
NC12CC3CC(CC(C3)C1)C2 [Amantadine, 1-aminoadamantane, reference compound] | 284.1 ± 21.4 µM
CC1(C)C2CC[C@@]1(C)C(=O)C2 [Compound 1, (1R)-(+)-camphor, reference compound] | 3289.5 ± 216.0 µM
